Source: patent US20240076343A1

Key:
Assay in all cases: cell-based or functional assay
[1] = target: high-affinity hIL-2 receptor (IL-2Rαβγ) on NK-92 cells (human) (UniProt P01589)
[2] = target: intermediate affinity hIL-2 receptor complex (IL-2Rβγ) (human) (UniProt P14784)
[3] = target: intermediate affinity hIL-2 receptor complex (IL-2Rβγ) on TF1+IL-2Rβ cells (human) (UniProt P14784)

Binder | Fold change from hIL-2 (NK-92), fixed concentration pSTAT5 screen [1] [fold] | Fold change from rhIL-2 (NK-92) [1] [fold] | Fold change from rhIL-2 (TF1 + IL-2Rβ), pSTAT5 titration [2] [fold] | Fold change from hIL-2 (TF1 + IL-2Rβ), fixed concentration pSTAT5 screen [3] [fold] | Fold change from hIL-2 (NK-92) [1] [fold] | Fold change from hIL-2 (TF1 + IL-2Rβ) [3] [fold]
1H3-hIgG1-L6-hIL-2 (T3A/F42A/Y45A/L72G/C125A) (protein) heavy: EVQLVESGGGLVQPGRSLKLSCAVSGFTFSDYAMAWVRQAPKKGLEWVATISYDGSRTYYRDSVKGRFTISRDNAKITLYLQMDSLRSEDTATYYCARHGSGYFDYWGQGVMVTVSS[not shown - human IgG1 constant region]SGGGGSAPASSSTKKTQLQLEHLLLDLQMILNGINNYKNPKLTRMLTAKFAMPKKATELKHLQCLEEELKPLEEVLNGAQSKNFHLRPRDLISNINVIVLELKGSETTFMCEYADETATIVEFLNRWITFAQSIISTLT light: DTVLTQSPALAVSPGERVTISCRASESVRTGVHWYQQKPGQQPKLLIYGASNLESGVPARFSGSGSGTDFTLTIDPVEADDTATYFCQQSWNDPFTFGSGTKLEIKRTVAAPSVFIFPPSDEQLKSGTASVVCLLNNFYPREAKVQWKVDNALQSGNSQESVTEQDSKDSTYSLSSTLTLSKADYEKHKVYACEVTHQGLSSPVTKSFNRGEC | 10 | 142 | 0 | 1 | – | –
1H3-hIgG1-L6-hIL-2 (R38E/Q22A) (protein) heavy: EVQLVESGGGLVQPGRSLKLSCAVSGFTFSDYAMAWVRQAPKKGLEWVATISYDGSRTYYRDSVKGRFTISRDNAKITLYLQMDSLRSEDTATYYCARHGSGYFDYWGQGVMVTVSS[not shown - about 450 residues with a human IgG1 Fc and changes] light: DTVLTQSPALAVSPGERVTISCRASESVRTGVHWYQQKPGQQPKLLIYGASNLESGVPARFSGSGSGTDFTLTIDPVEADDTATYFCQQSWNDPFTFGSGTKLEIKRTVAAPSVFIFPPSDEQLKSGTASVVCLLNNFYPREAKVQWKVDNALQSGNSQESVTEQDSKDSTYSLSSTLTLSKADYEKHKVYACEVTHQGLSSPVTKSFNRGEC | – | – | – | – | 12 | 0
1H3-hIgG1-L6-hIL-2 (R38E/T123A) (protein) heavy: EVQLVESGGGLVQPGRSLKLSCAVSGFTFSDYAMAWVRQAPKKGLEWVATISYDGSRTYYRDSVKGRFTISRDNAKITLYLQMDSLRSEDTATYYCARHGSGYFDYWGQGVMVTVSS[not shown - about 450 residues with a human IgG1 Fc and changes] light: DTVLTQSPALAVSPGERVTISCRASESVRTGVHWYQQKPGQQPKLLIYGASNLESGVPARFSGSGSGTDFTLTIDPVEADDTATYFCQQSWNDPFTFGSGTKLEIKRTVAAPSVFIFPPSDEQLKSGTASVVCLLNNFYPREAKVQWKVDNALQSGNSQESVTEQDSKDSTYSLSSTLTLSKADYEKHKVYACEVTHQGLSSPVTKSFNRGEC | – | – | – | – | 12 | 0
1H3-hIgG1-L6-hIL-2 (R38E/I129A) (protein) heavy: EVQLVESGGGLVQPGRSLKLSCAVSGFTFSDYAMAWVRQAPKKGLEWVATISYDGSRTYYRDSVKGRFTISRDNAKITLYLQMDSLRSEDTATYYCARHGSGYFDYWGQGVMVTVSS[not shown - about 450 residues with a human IgG1 Fc and changes] light: DTVLTQSPALAVSPGERVTISCRASESVRTGVHWYQQKPGQQPKLLIYGASNLESGVPARFSGSGSGTDFTLTIDPVEADDTATYFCQQSWNDPFTFGSGTKLEIKRTVAAPSVFIFPPSDEQLKSGTASVVCLLNNFYPREAKVQWKVDNALQSGNSQESVTEQDSKDSTYSLSSTLTLSKADYEKHKVYACEVTHQGLSSPVTKSFNRGEC | – | – | – | – | 13 | 1
1H3-hIgG1-L6-hIL-2 (R38E/S130A) (protein) heavy: EVQLVESGGGLVQPGRSLKLSCAVSGFTFSDYAMAWVRQAPKKGLEWVATISYDGSRTYYRDSVKGRFTISRDNAKITLYLQMDSLRSEDTATYYCARHGSGYFDYWGQGVMVTVSS[not shown - about 450 residues with a human IgG1 Fc and changes] light: DTVLTQSPALAVSPGERVTISCRASESVRTGVHWYQQKPGQQPKLLIYGASNLESGVPARFSGSGSGTDFTLTIDPVEADDTATYFCQQSWNDPFTFGSGTKLEIKRTVAAPSVFIFPPSDEQLKSGTASVVCLLNNFYPREAKVQWKVDNALQSGNSQESVTEQDSKDSTYSLSSTLTLSKADYEKHKVYACEVTHQGLSSPVTKSFNRGEC | – | – | – | – | 12 | 0
1H3-hIgG1-L6-hIL-2 (R38E/Q126A) (protein) heavy: EVQLVESGGGLVQPGRSLKLSCAVSGFTFSDYAMAWVRQAPKKGLEWVATISYDGSRTYYRDSVKGRFTISRDNAKITLYLQMDSLRSEDTATYYCARHGSGYFDYWGQGVMVTVSS[not shown - about 450 residues with a human IgG1 Fc and changes] light: DTVLTQSPALAVSPGERVTISCRASESVRTGVHWYQQKPGQQPKLLIYGASNLESGVPARFSGSGSGTDFTLTIDPVEADDTATYFCQQSWNDPFTFGSGTKLEIKRTVAAPSVFIFPPSDEQLKSGTASVVCLLNNFYPREAKVQWKVDNALQSGNSQESVTEQDSKDSTYSLSSTLTLSKADYEKHKVYACEVTHQGLSSPVTKSFNRGEC | – | – | – | – | 13 | 1
1H3-hIgG1-L6-hIL-2 (R38E/Q126V) (protein) heavy: EVQLVESGGGLVQPGRSLKLSCAVSGFTFSDYAMAWVRQAPKKGLEWVATISYDGSRTYYRDSVKGRFTISRDNAKITLYLQMDSLRSEDTATYYCARHGSGYFDYWGQGVMVTVSS[not shown - about 450 residues with a human IgG1 Fc and changes] light: DTVLTQSPALAVSPGERVTISCRASESVRTGVHWYQQKPGQQPKLLIYGASNLESGVPARFSGSGSGTDFTLTIDPVEADDTATYFCQQSWNDPFTFGSGTKLEIKRTVAAPSVFIFPPSDEQLKSGTASVVCLLNNFYPREAKVQWKVDNALQSGNSQESVTEQDSKDSTYSLSSTLTLSKADYEKHKVYACEVTHQGLSSPVTKSFNRGEC | – | – | – | – | 14 | 1
1H3-hIgG1-L6-hIL-2 (R38E/Q22A/S130A) (protein) heavy: EVQLVESGGGLVQPGRSLKLSCAVSGFTFSDYAMAWVRQAPKKGLEWVATISYDGSRTYYRDSVKGRFTISRDNAKITLYLQMDSLRSEDTATYYCARHGSGYFDYWGQGVMVTVSS[not shown - human IgG1 constant region]SGGGGSAPTSSSTKKTQLQLEHLLLDLAMILNGINNYKNPKLTEMLTFKFYMPKKATELKHLQCLEEELKPLEEVLNLAQSKNFHLRPRDLISNINVIVLELKGSETTFMCEYADETATIVEFLNRWITFCQSIIATLT light: DTVLTQSPALAVSPGERVTISCRASESVRTGVHWYQQKPGQQPKLLIYGASNLESGVPARFSGSGSGTDFTLTIDPVEADDTATYFCQQSWNDPFTFGSGTKLEIKRTVAAPSVFIFPPSDEQLKSGTASVVCLLNNFYPREAKVQWKVDNALQSGNSQESVTEQDSKDSTYSLSSTLTLSKADYEKHKVYACEVTHQGLSSPVTKSFNRGEC | – | – | – | – | 13 | 1
